Measured values as given in article PMC4336329 (PLoS ONE, 2015).
Among all 310,000 compounds or so, about 14,000 (4.5%) showed an effect of 50% or more. Effects have a minus sign here. This is one part of the list.

biological target: human ether-à-go-go-related gene (hERG) potassium channel (human, UniProt Q12809); assay: primary screen, population patch clamp on CHO cells stably expressing hERG
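Note: peak tail current of the secondary pulse compared with the same well before compound.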

Sequence of human ether-à-go-go-related gene (hERG) potassium channel (Q12809 whole entry, looked up): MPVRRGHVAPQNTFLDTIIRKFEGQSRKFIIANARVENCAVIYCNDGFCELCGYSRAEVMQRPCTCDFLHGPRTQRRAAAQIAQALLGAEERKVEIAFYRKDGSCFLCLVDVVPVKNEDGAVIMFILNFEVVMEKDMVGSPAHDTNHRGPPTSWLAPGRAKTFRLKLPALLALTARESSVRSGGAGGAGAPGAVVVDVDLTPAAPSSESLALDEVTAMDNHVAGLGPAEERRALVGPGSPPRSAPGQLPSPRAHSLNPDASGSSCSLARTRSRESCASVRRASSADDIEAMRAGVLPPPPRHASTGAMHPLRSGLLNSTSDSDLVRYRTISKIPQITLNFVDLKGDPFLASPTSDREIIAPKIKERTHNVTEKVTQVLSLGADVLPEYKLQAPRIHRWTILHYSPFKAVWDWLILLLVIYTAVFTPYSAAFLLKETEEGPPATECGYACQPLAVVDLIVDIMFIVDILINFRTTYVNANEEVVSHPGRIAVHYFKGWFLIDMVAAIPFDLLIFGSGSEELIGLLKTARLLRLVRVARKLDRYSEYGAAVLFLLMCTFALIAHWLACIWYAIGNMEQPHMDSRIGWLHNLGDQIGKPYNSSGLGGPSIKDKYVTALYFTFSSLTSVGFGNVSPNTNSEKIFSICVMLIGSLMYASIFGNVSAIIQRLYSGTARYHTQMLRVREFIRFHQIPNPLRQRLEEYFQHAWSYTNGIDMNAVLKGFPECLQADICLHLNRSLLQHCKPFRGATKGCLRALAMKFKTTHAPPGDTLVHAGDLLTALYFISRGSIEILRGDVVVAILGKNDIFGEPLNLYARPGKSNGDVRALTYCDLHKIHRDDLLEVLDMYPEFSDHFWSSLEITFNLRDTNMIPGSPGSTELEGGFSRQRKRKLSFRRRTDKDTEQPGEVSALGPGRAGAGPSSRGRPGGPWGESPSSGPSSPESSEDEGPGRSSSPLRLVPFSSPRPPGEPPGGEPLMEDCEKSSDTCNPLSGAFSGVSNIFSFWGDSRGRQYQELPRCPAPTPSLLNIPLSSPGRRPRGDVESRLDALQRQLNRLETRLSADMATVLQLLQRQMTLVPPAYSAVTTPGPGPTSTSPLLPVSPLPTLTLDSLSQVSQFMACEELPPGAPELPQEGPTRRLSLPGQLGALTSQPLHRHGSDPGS

Row | SMILES | hERG current change (%, negative = inhibition) at 10uM
1 | CC(C)[C@H](NC(=O)c1ccc(C(C)(C)C)cc1)C(=O)Nc1nnc(C2CC2)s1 | -1.45%
2 | COc1cccc(C2=CC(c3ccc(N(C)C)cc3)n3nnnc3N2)c1 (stereo not shown) | 4.74%
3 | Cc1cc(C)c2c(=O)c(C#N)coc2c1 | -0.22%
4 | COc1ccc(-n2nc3c(c2NC(=O)COc2ccccc2F)CS(=O)(=O)C3)cc1 | 2.75%
5 | Cn1c(O)c(C=NCCCCCCCCCCC(=O)O)c(=O)n(C)c1=O | 1.01%
6 | COc1ccc(F)c(CN2CCCC(CO)(Cc3cccc(Cl)c3)C2)c1 (stereo not shown) | -30.6%
7 | FC(F)(F)c1cc(-c2cccs2)nc(N2CCOCC2)n1 | 1.94%
8 | CCSc1nc(O)c(C(c2cccc(OC)c2)c2c(O)nc(SCC)[nH]c2=O)c(=O)[nH]1 | 10.7%
9 | Cc1cccc(Nc2nnc(SCC3CCCCO3)s2)c1C (stereo not shown) | -36.5%
10 | COC(=O)CC1C(C(=O)OC)ON2OC(C(=O)OC)C(C(=O)OC)C12 (stereo not shown) | 2.95%
11 | Cc1ccc(-n2nc3cc(C)c(NC(=O)c4cccnc4)cc3n2)cc1 | 7.73%
12 | COc1ccc(S(=O)(=O)N2CCOC2CNC(=O)C(=O)NCCCc2ccccc2)cc1 (stereo not shown) | -29.6%
13 | COc1ccccc1Nc1nc(N)nc(-c2cc3ccccc3o2)n1 | 23.4%
14 | Cc1cccc(NC(=O)c2ccc(S(=O)(=O)N3CCN(C)CC3)cc2)c1C | 15.1%
15 | COC(=O)C1=C(C)N(C)C(=O)/C1=C\c1ccco1 | -1.58%
16 | CCOc1ccc2nc(NC(=O)c3cccnc3)sc2c1 | 14.8%
17 | O=C(CCc1ccccc1)Nc1cccnc1Cl | 13.4%
18 | CCO[C@@H]1OC(C(=O)Nc2ccccc2)=C[C@H](c2ccc(C(F)(F)F)cc2)[C@H]1CCCO | -10.8%
19 | Cc1cccc(OC2(c3ccccc3)OC(=O)c3ccccc32)c1C (stereo not shown) | 8.61%
20 | CCOC(=O)[C@H]1[C@H]2COc3ccccc3[C@@H]2N2C(=O)[C@@H](CO)NC(=O)[C@@]12C | 12.8%
21 | CCOC(=O)[C@]1(C#N)[C@@H]2C=CC(C(C)=O)=CN2[C@@H](C(N)=O)[C@@H]1c1ccsc1 | -2.96%
22 | CCC(C(=O)c1ccccc1)N(C(=O)c1ccccc1Cl)N1C(=O)C2C3C=CC(C3)C2C1=O (stereo not shown) | -7.79%
23 | Cc1ccnc(NS(=O)(=O)c2ccc(NS(=O)(=O)c3cccs3)cc2)n1 | 13.5%
24 | O=[N+]([O-])c1ccc(NS(=O)(=O)c2cccc3cccnc23)cc1 | 7.19%
25 | COc1ccc(OC)c(C2=Nn3c(nnc3-c3ccco3)SC2)c1 | -12.6%
26 | CC(C)[C@H](NC(=O)c1cccc(CN(Cc2ccccc2)C(=O)/C=C/c2ccccc2)c1)C(=O)O | 12.7%
27 | COc1ccc(CN(C)C(C)C(=O)Nc2ccc(S(=O)(=O)N3CCCCC3)cc2)cc1F (stereo not shown) | -19.7%
28 | CC(=O)Oc1ccc(Cn2cnc3cc4ccccc4cc32)cc1 | -5.72%

Row | SMILES | hERG current change (%, negative = inhibition) at 10uM
29 | Cl.Nc1nc(N2CCN(c3ccccn3)CC2)nc2ccccc12 | -68.4%
30 | Cc1c(NC(=O)c2ccc3c(c2)C(=O)N(CC2CCCO2)C3=O)cccc1C(=O)O (stereo not shown) | 24.4%
31 | CSc1sc(C(=O)O)c(C)c1C(C)=O | 12.7%
32 | COc1ccc(N2CCN(C(=O)Cc3csc(NC(=O)Nc4ccccc4OC)n3)CC2)cc1 | 1.05%
33 | Cc1cccc(OCCCC(=O)Nc2ccc3c(c2)OCO3)c1 | 0.548%
34 | CCCNc1ncnc2onc(C)c12 | 19.5%
35 | CC(Cl)C(=O)NN=C(c1ccccc1)c1ccccc1 (stereo not shown) | 5.34%
36 | CCC(=O)NC(=Nc1nc2ccccc2s1)NC(=O)CC | -0.0769%
37 | Cc1cccc(OCC(=O)Nc2ccccc2C(=O)N2CCOCC2)c1 | 9.7%
38 | O=C(NCc1ccc(F)cc1)C1CCN(S(=O)(=O)c2ccc3c(c2)OCCCO3)CC1 | -23.6%
39 | CC(=O)CCCCn1c(=O)c2c(ncn2C)n(C)c1=O | -1.46%
40 | CCOc1ccc(CN=C(N)N=C(N)N)cc1Cl.Cl | -10%
41 | CCN(CCn1cccn1)Cc1ccccc1OCC(O)CN1CCc2ccccc2C1 (stereo not shown) | -51.5%
42 | Cc1ccc(/C=C2\CCn3c2nc2cc(C(=O)O)ccc2c3=O)c(C)c1 | 7.99%
43 | Cc1cccc(NC(=O)CN2CCN(C(=O)c3ccc(OCc4cn5ccccc5n4)cc3)CC2)c1C | -46.5%
44 | C/C(CC(=O)NC1CCCCC1)=N\NC(=O)c1ccccc1C | 4.38%
45 | CC(=O)Nc1cccc(C(=O)OCC(=O)NCc2ccc(F)cc2)c1 | -1.75%
46 | CCOC(=O)C1=NNC2C(=O)N(CC)C(=O)C12 (stereo not shown) | 9.23%
47 | O=C(Nc1ccc(Cl)cn1)C1CCCN1S(=O)(=O)c1ccc(Cl)cc1 (stereo not shown) | -11.6%
48 | CC1CN(c2nc3ccccc3nc2C(C#N)C(=O)NCc2ccc3c(c2)OCO3)CC(C)O1 (stereo not shown) | 15.1%
49 | Cc1ccc(S(=O)(=O)NC2(C(F)(F)F)C(=O)Nc3c2c(=O)n(C)c(=O)n3C)cc1 (stereo not shown) | 18.4%
50 | CCN(CC)c1ccc(N2C(=O)CSC2=S)cc1 | -15.2%
51 | COc1ccccc1CCc1nnc(CCC(=O)NC(C)Cc2ccsc2)o1 (stereo not shown) | -6.75%
52 | CC(Oc1ccc(Cl)cc1Cl)C(=O)Nc1ncccn1 (stereo not shown) | -2.67%
53 | CCc1cccc(CC)c1N1C(=O)c2cc(N3CCOCC3)c([N+](=O)[O-])cc2C1=O | -22.1%
54 | CCCCn1c(N)c(N(CC(C)C)C(=O)CSCc2c(C)noc2C)c(=O)[nH]c1=O | 5.89%
55 | c1ccc(CN2CCN(c3nc4ccccc4n4cnnc34)CC2)cc1 | -12.6%
